The whole screen tested about 150,000 compounds, of which about 540 (0.36%) showed an effect of 50% or more. This is one part of the list.
Each molecule was assayed on Plasmodium falciparum (assay: Primary screen in NF54 nanoGlo assay, in single point, at 2uM, 72h; a lower Z score goes with more inhibition). Conditions: timepoint 72 hour.
Assay type: functional, Erythrocyte

Which “% Inhibition” value does the source give for `Cc1[nH]c(=O)c(C#N)c(C)c1CCC(=O)Nc1ccc2c(c1)OCO2` here?
The value was 1%.

And the Z score?
Its Z score is -0.14.

`CC(CNC(=O)NC1CCCCC1O)Cc1cccs1` (stereo not drawn) was tested. Which “% Inhibition” value did it give?
Its value is -4%.

What about the Z score of the same molecule?
The Z score was 0.56.

With `Cc1cccc(-c2ncccc2CNC(=O)c2ccc3c(c2)OCO3)c1` as the molecule, how does the “% Inhibition” value read?
The value was -2%.

What about the Z score of the same molecule?
Its Z score is 0.25.

What does the source list for `COC[C@H]1CCCN(S(=O)(=O)N2CCCCCCC2)C1`?
% Inhibition: -5%; Z score: 0.71

For `CCN(Cc1nnc(C)o1)c1ccccc1`, which “% Inhibition” value is on record?
Its value is -7%.

What about the Z score of the same molecule?
The Z score was 0.73.

What does the source list for `O=C([C@@H]1CCCCN1C(=O)CC1(O)CCCC1)N1CCOCC1`?
% Inhibition: 0%; Z score: 0.06

What does the source list for `O=C(NCCCn1ccnn1)N[C@H]1CCOc2c(F)cccc21`?
% Inhibition: 11%; Z score: -1.13

What does the source list for `NC(=O)c1ccccc1NC(=O)CCN1CCN(c2ncccn2)CC1`?
% Inhibition: -8%; Z score: 1.49

Which results are given for `CCNC(=O)N1CC(C(=O)N2CCN(c3ccccc3F)CC2)CCC1c1ccc(F)c(C)c1` (stereo not drawn)?
% Inhibition: -7%; Z score: 0.98

Which “% Inhibition” value does the source give for `C#Cc1cccc(NC(=O)CCc2cccc(N(C)C)c2)c1` here?
Its value is 0%.

And the Z score?
Its Z score is 0.07.

With `N#Cc1ccc(NC(=O)O[C@H]2COCCN(c3nc4ccccc4o3)C2)cc1` as the molecule, how does the “% Inhibition” value read?
Its value is 0%.

And the Z score?
Its Z score is -0.04.

What does the source list for `COc1ccccc1[C@H](CC(C)C)NCC#N`?
% Inhibition: -9%; Z score: 1.39

With `C[C@H](NCC(=O)Nc1ccc2c(c1)OC1(CCCCC1)O2)c1cccs1` as the molecule, how does the “% Inhibition” value read?
The value was -9%.

What about the Z score of the same molecule?
The Z score was 1.57.

How did the “% Inhibition” value turn out when `C[C@H](NC(=O)c1ccc[nH]1)c1nc(-c2ccncc2)cs1` was run?
Its value is -3%.

What about the Z score of the same molecule?
Its Z score is 0.46.

With `CC(C)(C)OC(=O)N1CC2CCCCN2CC1CN` (stereo not drawn) as the molecule, how does the “% Inhibition” value read?
Its value is -3%.

And the Z score?
Its Z score is 0.54.

How did the “% Inhibition” value turn out when `Cc1cnccc1NCCNC1CCN(c2ccc3c(c2)CCC3)CC1` was run?
Its value is 85%.

What about the Z score of the same molecule?
The Z score was -13.14.

What does the source list for `CC(C)(C)NC(=O)N1CCC(CNC(=O)CCc2ccccc2Br)CC1`?
% Inhibition: -9%; Z score: 1.47

How did the “% Inhibition” value turn out when `O=C1NCCN(Cc2c(F)cccc2Br)[C@H]1Cc1nc2ccccc2o1` was run?
Its value is 26%.

And the Z score?
The Z score was -2.89.

Which “% Inhibition” value does the source give for `Nc1ccc(CCNS(=O)(=O)c2cnc3n2CCC3)cc1` here?
Its value is -35%.

What about the Z score of the same molecule?
The Z score was 4.06.

`O=C(NCC(=O)N1CCCC1)NCC1(c2ccc(Cl)cc2Cl)CCOCC1` was tested. Which “% Inhibition” value did it give?
Its value is -2%.

What about the Z score of the same molecule?
Its Z score is 0.26.

What does the source list for `CC(NCc1noc2c1CCCC2)C1CC12CC2` (stereo not drawn)?
% Inhibition: -10%; Z score: 1.27

For `CCNC(=O)N1CCC(c2nnc(C(=O)Nc3ccccc3)s2)CC1`, which “% Inhibition” value is on record?
The value was 8%.

And the Z score?
Its Z score is -0.76.

For `COc1ccc(CC(=O)N(Cc2ccco2)[C@H]2CCS(=O)(=O)C2)cc1OC`, which “% Inhibition” value is on record?
The value was -7%.

And the Z score?
Its Z score is 0.88.

For `COCCN1C[C@@H](Cc2cc(N(C)C)ncn2)CC1=O`, which “% Inhibition” value is on record?
The value was -17%.

And the Z score?
Its Z score is 1.69.

From ChEMBL document CHEMBL4888484, “Replenishing the malaria drug discovery pipeline: Screening and hit evaluation of the MMV Hit Generation Library 1 (HGL1) against asexual blood stage Plasmodium falciparum ,using a nano luciferase reporter read-out” (2022)
